# Source: the supplement of paper PMC4604168 (melanoma cell lines)
# The list shows a part of the results. Single values are uncertain, as repeats are few or missing.
# Legend:
# Test in all cases: cell count relative to DMSO control; melanoma cells; higher = more viable cells
# Settings in all cases: library dose: standard library concentration; 72 h
# 501Mel = tested on: 501Mel
# A101D = tested on: A101D
# A2058 = tested on: A2058
# A375 = tested on: A375
# 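Further: cells treated in 1,536-well plates, then fixed and DAPI-stained, with nuclei counted from automated high-throughput microscope images.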
Compound,cell count (501Mel),cell count (A101D),cell count (A2058),cell count (A375)
"CCc1ccc(CCOc2ccc(CC3SC(=O)NC3=O)cc2)nc1 (stereo unspecified) [pioglitazone] + COc1ccc2c(c1)CCC1C2CCC2(C)C(NCCCCCCN3C(=O)C=CC3=O)CCC12 [U73122] (first compound 10 µM, partner dose 2 µM)",99.9%,54%,55.4%,78.6%
"NC(=O)c1ccc(N(C(N)=O)c2c(F)cccc2F)nc1-c1ccc(F)cc1F + CCCCCCCCCCCC1=C(O)C(=O)C=C(O)C1=O [Embelin] (first compound 2 µM, partner dose 6 µM)",96.3%,102%,95.7%,106%
"Cc1ccc(NC(=O)c2cccc(N(C)C)c2)cc1NC(=O)c1ccc(O)cc1 + COc1ccc(-c2ccc3c(N4CCOCC4)nc(N4C[C@@H](C)O[C@@H](C)C4)nc3n2)cc1CO [KU0063794] (first compound 10 µM, partner dose 0.1 µM)",76.4%,92.9%,84.4%,108%
"CCCCCCCCc1ccc(CCC(N)(CO)CO)cc1 [fingolimod] + CCN(CC)CCCCNc1ncc2cc(-c3cc(OC)cc(OC)c3)c(NC(=O)NC(C)(C)C)nc2n1 [PD173074] (first compound 10 µM, partner dose 0.5 µM)",1.43%,7.44%,7.83%,84.3%
"CN(NC(=O)CC(=O)NN(C)C(=S)c1ccccc1)C(=S)c1ccccc1 + COc1ccc2c(c1)CCC1C2CCC2(C)C(NCCCCCCN3C(=O)C=CC3=O)CCC12 [U73122] (first compound 0.03 µM, partner dose 2 µM)",110%,71.5%,81.4%,97%
"COc1cc2c(Oc3ccc4[nH]c(C)cc4c3F)ncnc2cc1OCCCN1CCCC1 [cediranib] + O=S(=O)(c1ccccc1)N(CC(F)(F)F)c1ccc(C(O)(C(F)(F)F)C(F)(F)F)cc1 [T0901317] (first compound 2 µM, partner dose 7 µM)",63.1%,83%,90.2%,128%
"Cc1ccc(NC(=O)c2cccc(N(C)C)c2)cc1NC(=O)c1ccc(O)cc1 + O=c1cc(-c2cccc3c2Sc2ccccc2S3)oc(N2CCOCC2)c1 [KU55933] (first compound 10 µM, partner dose 5 µM)",83%,78.7%,82.9%,117%
"Cc1ccc(NC(=O)c2cccc(N(C)C)c2)cc1NC(=O)c1ccc(O)cc1 + O=C1NC(=O)/C(=C/c2ccc(-c3ccc(F)cc3O)o2)S1 [AS252424] (first compound 10 µM, partner dose 5 µM)",70.3%,94.6%,102%,147%
"Cc1ccc(NC(=O)c2cccc(N(C)C)c2)cc1NC(=O)c1ccc(O)cc1 + O=C(O)C(=O)Nc1sc2c(c1C(=O)O)CCNC2 [TCS401] (first compound 10 µM, partner dose 8.33333 µM)",72.1%,114%,112%,161%
"Cc1ccc(NC(=O)c2cccc(N(C)C)c2)cc1NC(=O)c1ccc(O)cc1 + COc1cc(N2CCC(N3CCN(C)CC3)CC2)ccc1Nc1ncc(Cl)c(Nc2ccccc2S(=O)(=O)C(C)C)n1 [NVP-TAE684] (first compound 10 µM, partner dose 0.4 µM)",82.9%,79.1%,59.3%,92%
"CN(NC(=O)CC(=O)NN(C)C(=S)c1ccccc1)C(=S)c1ccccc1 + Cc1cc([N+](=O)[O-])ccc1NS(=O)(=O)c1cc(Cl)ccc1Cl [FH535] (first compound 0.03 µM, partner dose 5 µM)",0.542%,35.1%,7.9%,96.6%
"NC(=O)c1ccc(N(C(N)=O)c2c(F)cccc2F)nc1-c1ccc(F)cc1F + COc1ccc(-c2ccc3c(N4CCOCC4)nc(N4C[C@@H](C)O[C@@H](C)C4)nc3n2)cc1CO [KU0063794] (first compound 2 µM, partner dose 0.1 µM)",109%,104%,88%,102%
"CN(NC(=O)CC(=O)NN(C)C(=S)c1ccccc1)C(=S)c1ccccc1 + COc1cc2ncnc(Nc3ccc(Oc4ccccc4)cc3)c2cc1OC [SrcI1] (first compound 0.03 µM, partner dose 10 µM)",6.94%,29.4%,4.3%,164%
"CN(NC(=O)CC(=O)NN(C)C(=S)c1ccccc1)C(=S)c1ccccc1 + O=S(=O)(c1ccccc1)N(CC(F)(F)F)c1ccc(C(O)(C(F)(F)F)C(F)(F)F)cc1 [T0901317] (first compound 0.03 µM, partner dose 7 µM)",2.28%,41.8%,14.8%,95%
